In PubChem BioAssay AID504832 (National Center for Advancing Translational Sciences (NCATS), 2011):
Among all 310,000 compounds or so, about 18,000 (5.8%) were called active. The shares of active, inactive and inconclusive entries below differ from those in the screen. Calls follow the shape of the dose curve; as a rule, active = well fitted inhibition curve with a large enough effect; inconclusive = small, poorly fitted or top-dose-only effect, or another doubt; inactive = no such curve, though single readings can be large or run the other way. No potency is given beside an inconclusive call; the fits are too rough.

Assay: Primary qHTS for delayed death inhibitors of the malarial parasite plastid, 48 hour incubation
Conditions: P. falciparum luciferase growth in erythrocytes; series mostly up to 28.7 µM
In short: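 In quantitative HTS format, infected erythrocytes bearing luciferase-reporter parasites were treated for a single generation at 37 C. Luminescence after adding detection reagent served as the growth measure.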
Potency is read from the fitted curve at half-maximal effect; tags tell the direction and shape of the fitted curve.

Row | SMILES | Potency
1 | CC(C)c1ccc(NC(=O)COc2ccc(S(=O)(=O)N3CCOCC3)cc2)cc1 | inconclusive [inhibitor, single point]
2 | CCc1ccc(C(=O)OCC(=O)NCCNC(=O)COC(=O)c2ccc(CC)cc2)cc1 | inactive
3 | COC(=O)[C@@]12CCCCN1[C@H](c1ccc(-c3cccc(Cl)c3)c(OC)c1)[C@@H]1C(=O)N(C)C(=O)[C@@H]12 | active: 9.28 µM
4 | C/C(=N\NC(=O)CNC(=O)C(c1ccccc1)c1ccccc1)c1ccccc1 | inactive
5 | O=C(NC1CCCc2ccccc21)C1CCN(S(=O)(=O)c2ccccc2F)CC1 (stereo unspecified) | inconclusive [inhibitor, full curve, poor fit]
6 | O=C(CSc1nnc(COc2ccc(Cl)cc2)o1)NC1CC2CCC1C2 (stereo unspecified) | inactive
7 | CC1CC(C)CN(CCCNC(=O)COc2cc(=O)n(C)c3ccccc23)C1 (stereo unspecified) | active: 10.4 µM
8 | CCOC(=O)C(=CNc1cc(C)ccc1-n1cccc1)C(=O)OCC | inconclusive [inhibitor, single point]
9 | Cc1noc(C)c1CSc1nnc(-c2ccncc2)n1-c1ccc(Cl)c(Cl)c1 | inconclusive [inhibitor, partial curve, poor fit]
10 | CCOC(=O)c1c(NC(=O)COC(=O)CC(NC(C)=O)c2ccccc2)sc(C(=O)NC)c1C (stereo unspecified) | inconclusive [inhibitor, single point]
11 | Cn1nnnc1SC(C(=O)Nc1ccc(F)cc1)c1ccccc1 (stereo unspecified) | inactive
12 | COc1ccc(NC(=O)CN(C)C(=O)c2cccc(S(=O)(=O)N3CCN(c4ccccc4)CC3)c2)cc1 | inconclusive [inhibitor, single point]
13 | COc1ccccc1/C=C1\SC(=O)N(CCC(=O)N2CCCCC2CCO)C1=O (stereo unspecified) | inconclusive [inhibitor, partial curve]
14 | O=C(CCN1C(=O)c2ccccc2C1=O)Nc1ccc(-c2cn3ccsc3n2)cc1 | inactive
15 | CN(C)S(=O)(=O)Oc1ccsc1C(=O)Nc1ccccc1Cl | inconclusive [inhibitor, single point]
16 | COc1ccc(C)cc1NC(=O)CNc1ccc(C(C)=O)cc1 | inconclusive [inhibitor, single point]
17 | CCCCCOc1ccc(C(=O)N(Cc2ccco2)C2CCS(=O)(=O)C2)cc1 (stereo unspecified) | inconclusive [inhibitor, partial curve, poor fit]
18 | Cc1ccc(S(=O)(=O)NCC2CCC(C(=O)NCc3cccnc3)CC2)cc1 (stereo unspecified) | inconclusive [inhibitor, full curve, poor fit]
19 | c1ccc2c(c1)oc1c(NCc3ccc4c(c3)OCO4)ncnc12 | inactive
20 | COc1cc(C(=S)N2CCOCC2)ccc1OC(=O)/C=C/c1ccco1 | inactive
21 | Cc1cc(C)nc(N2CCCC(C(=O)NCCc3ccccc3F)C2)n1 (stereo unspecified) | inactive
22 | COc1ccc(N=C2C(=Nc3ccc(OC)cc3)N(c3ccc(OC)cc3)C(=S)N2C)cc1 | active: 5.22 µM
23 | COc1ccc(CNC(=O)c2c(F)c(F)c(F)c(F)c2F)cc1 | inactive
24 | CCOc1ccccc1NC(=O)C1CCCN(S(=O)(=O)c2ccc3c(c2)C(C)(C)C(=O)N3C)C1 (stereo unspecified) | inconclusive [inhibitor, full curve]

Row | SMILES | Potency
25 | CC(C)Cn1cnc2c1c(=O)n(C)c(=O)n2C | inconclusive [inhibitor, full curve, poor fit]
26 | Cc1ccc(S(=O)(=O)/N=C2\C=C(Nc3cccc(C(=O)O)c3)C(=O)c3ccccc32)c(C)c1 | active: 1.65 µM
27 | Cc1ccc2cc(C)c(NCCO)nc2c1 | inactive
28 | COc1ccccc1NC(=O)C1=C(C)Nc2ncnn2C1c1ccc(C)o1 (stereo unspecified) | inconclusive [inhibitor, partial curve, poor fit]
29 | O=c1[nH]c(=O)n([C@@H]2C[C@H](O)[C@H](CO)O2)cc1I | inactive
30 | Cc1cccn2c(=O)c3cc(C#N)c(=O)n(CC4CCCO4)c3nc12 (stereo unspecified) | inconclusive [inhibitor, partial curve, poor fit]
31 | COc1cc2c(cc1OC)C(C)N(C(=O)Cn1ncc3c1-c1ccccc1OC3)CC2 (stereo unspecified) | inconclusive [inhibitor, partial curve, poor fit]
32 | CSCCC(NC(=O)c1ccco1)C(=O)N1CCN(c2ccccc2O)CC1 (stereo unspecified) | inconclusive [inhibitor, single point]
33 | Cc1ccccc1C(OCC(O)CN1CCCCC1CCO)c1ccccc1 (stereo unspecified) | inconclusive [inhibitor, single point]
34 | CC1CN(c2ccccc2)NC1=O (stereo unspecified) | inactive
35 | O=C(C1CCCO1)N1CCN(C(=S)Nc2ccccc2Cl)CC1 (stereo unspecified) | inactive
36 | COc1ccc(N2CCCC2)c(NC(=O)COc2ccccc2Cl)c1 | inconclusive [inhibitor, single point]
37 | COc1ccccc1Nc1cc(C(=O)N2CCc3ccccc3C2)c2ccccc2n1 | inconclusive [inhibitor, partial curve, poor fit]
38 | Cc1ccc2nc(-c3cccnc3)cc(C(=O)Nc3ccc(F)cc3C)c2c1 | inconclusive [inhibitor, partial curve]
39 | CC(C)OP(=O)(OC(C)C)C(NC(=O)c1ccc(Br)cc1)c1ccccc1 (stereo unspecified) | inconclusive [inhibitor, single point]
40 | CCCCSCCCNC(=S)Nc1ccccc1C | inconclusive [inhibitor, single point]
41 | Nc1ccc(Nc2ccccc2)cc1 | inconclusive [inhibitor, single point]
42 | O=C(NCc1ccc(F)cc1)c1cc(S(=O)(=O)N2CCCCC2)ccc1N1CCOCC1 | inconclusive [inhibitor, single point]
43 | COc1cc2nc(NC(=O)c3ccc(F)cc3Cl)sc(=O)c2cc1OC | inactive
44 | CCc1ccc(OCC(=O)N/N=C\c2ccco2)c([N+](=O)[O-])c1 | inactive
45 | CC1(C)CC(=O)N(CC(=O)NCc2ccccc2)c2ccccc2S1(=O)=O | inactive
46 | COc1ccc(CC(=O)Nc2nnc(CC(C)C)s2)cc1S(=O)(=O)N1CCOCC1 | inconclusive [inhibitor, partial curve, poor fit]
47 | O=C(O)COc1ccc(/C=C/c2nc3ccc([N+](=O)[O-])cc3s2)cc1 | inactive
48 | Cc1ccc(SC[C@H](Cc2ccccc2)N2CCN(CCc3ccccc3)CCC2=O)cc1 | inconclusive [inhibitor, partial curve, poor fit]

Row | SMILES | Potency
49 | CCc1noc(C)c1C(=O)Nc1ccc(C#N)cc1 | inactive
50 | C=C(C)COc1ccc(-c2[nH]ncc2-c2ccc(Br)cc2)c(O)c1 | active: 3.7 µM
51 | COc1ccccc1OCCCC(=O)NC(C)c1ccccc1 (stereo unspecified) | inactive
52 | COc1ccc(CCCc2n[nH]c(=S)o2)c(C)c1 | inactive
53 | Cc1ccc(NC(=O)CC2OC(=O)c3ccccc32)cc1S(=O)(=O)N1CCOCC1 (stereo unspecified) | inconclusive [inhibitor, single point]
54 | O=C(N/N=C/C=C/c1ccccc1)c1cccnc1 | inactive
55 | CC(C)c1ccc(-c2csc3ncnc(N4CCN(C)CC4)c23)cc1 | inconclusive [inhibitor, single point]
56 | Cc1c(C=O)c2ccccc2n1CC(=O)NCc1ccccc1 | inconclusive [inhibitor, single point]
57 | O=C(COC(=O)c1ccc2c(c1)OCO2)Nc1ncc(Cl)cc1Cl | inactive
58 | COCc1cc(CNC(=O)C2CCC(=O)N(Cc3cccc(OC)c3)C2)[nH]n1 (stereo unspecified) | inactive
59 | CCOc1ccc(NC(=O)CN(C)C(=O)c2ccccc2CCc2ccccc2)cc1OCC | inconclusive [inhibitor, partial curve]
60 | Cc1cc(NC(=O)CSc2ccc3nnc(-c4ccc(F)cc4)n3n2)no1 | inconclusive [inhibitor, partial curve, poor fit]
61 | CC(Oc1ccccc1F)c1ccnc2nc(/N=C/N(C)C)nn12 (stereo unspecified) | inconclusive [inhibitor, single point]
62 | O=C(CNC(=S)N(CCCN1CCOCC1)Cc1cccs1)NC1CCCCCCC1 | inconclusive [inhibitor, single point]
63 | CC(=O)NC12CC3CC(C1)CC(C(=O)N(C)Cc1cccc(Cl)c1Cl)(C3)C2 | inactive
64 | CCOC(=O)C1=C(Cn2ccc(C(F)(F)F)n2)NC(=O)NC1c1ccc2c(c1)OCO2 (stereo unspecified) | inconclusive [inhibitor, single point]
65 | CCCN1C(=O)/C(=C/c2ccc(N3CCCC3)c(C)c2)NC1=S | inconclusive [inhibitor, single point]
66 | Cc1cc(NC(=O)C(C)SCC(=O)N(Cc2ccccc2)c2ccccc2)no1 (stereo unspecified) | inconclusive [inhibitor, partial curve, poor fit]
67 | Cc1ccc(C(=O)C2=C(O)C(=O)N(Cc3cccnc3)C2c2ccc(OC(C)C)cc2)o1 (stereo unspecified) | inconclusive [inhibitor, partial curve]
68 | CCCn1c(O)c(N=NC(=O)c2ccco2)c2ccccc21 | inconclusive [inhibitor, partial curve, poor fit]
69 | Cc1cc(-c2ccn[nH]2)c(C)s1 | inconclusive [inhibitor, full curve, poor fit]
70 | Cc1ccc2nc(CCc3nc4ccc(C)cc4[nH]3)[nH]c2c1 | inactive
71 | O=C(c1ccc(-c2ccccc2)c(F)c1)C1CCCN(CCCn2cccn2)C1 (stereo unspecified) | inconclusive [inhibitor, single point]
